# Test results: the RNAGym collection of RNA variant scans (doi:10.7554/elife.90254)
# The source gives no read counts; variants with many changes may rest on few reads.
# B1: OR4K15 (parent)
# chain: GUUAACGGUCAUAGGCCAUGGAAACUAGGAGCACCAUUUCGCUGCCAGUGAAGAAAUGAACAAAGAAAAUCUGGGCCAGGCAGGCAUCAAAAGAAAUAGUCUUGCGCUCAACCAGAAAGUCUGUAAUCAUUUUAAGGGUA
# Variants of: B1
# Test: self-cleavage, relative activity (ratio to wild type); higher = more cleavage; in vitro, sequencing; the parent is a self-cleaving ribozyme
row,Variant,self-cleavage
1,A90G U100A U131C,0.07
2,A91G U102C C105U U130C,0.34
3,U87C U130G U131C,0.42
4,A89G A117U U122A U130C,0.65
5,A89G U102C C109U A111G,0.02
6,A90G A98G U124C,0.31
7,A86G A92G U108G,0.01
8,U87C A95U A117U,0.95
9,A91G A118U U122C,0.24
10,U97A A126G U127C,1.41
11,A82U U127A A140G,0.4
12,U87C U108C U122G,0.02
13,U87C A116U A140G,0.18
14,A92G A117G U120C G123A,0.52
15,U87C U120C U124C U139C,0.27
16,A94G U108C U122C,0.01
17,A86G A89G U127C,0.19
18,U108G U120C U124A,0
19,A86G A125G A140G,0.75
20,A94G A95G U130C,0.37
21,C113U A117G U131A,0.01
22,U108C U122C U124C,0.01
23,G83U A125U U132C,0.25
24,A92G A125G G136A,0.99

row,Variant,self-cleavage
1,A111G U122C U139C,0.01
2,A92G U100C A118G A135G,2.23
3,U87A U124A U132C,0.51
4,U102C U122C A140G,1.46
5,U97C A118G A126G,0.77
6,A94G U127C G137A,1.17
7,A86G C101U U132G A134G,0.02
8,U102G A118G U122C,0.26
9,A94G U131C A140U,0.96
10,A82U A110U A114C U139C,0.01
11,A91U A98G U122A U130C,0.65
12,A95G G104A U122C,0.03
13,A89G A114C A140G,0.01
14,A82U A86U U108C A116G,0.04
15,U87C A91G U120G U122G,0.86
16,U102A A116U A129G,0.03
17,A91G A118G G137A,0.22
18,A96G A126G A129G U139C,0.76
19,A95G A111G U132C,0.04
20,A89G A116G A118G,0.13
21,A86U A95G A117G,2.51
22,A91U A96G A116G U122C U131A,0.62
23,A89U A92G A96G U102C A129G U130C,0.89
24,C88U A110G A111G,0.01

row,Variant,self-cleavage
1,A82U A129G A134G,0.1
2,A110U A117C G138A,0.35
3,A82U U97C A134G,0.04
4,U103C C107U A135G,0
5,U108C A110G A114G,0.01
6,A98G U130C U133G,0.06
7,A110G A118G U122C,0.13
8,A91G U132C A134G,0.5
9,A86G A118G U127C,0.26
10,A90G A92G U108C,0.01
11,A110G U131C G137U,0.13
12,A90G U97C C109U,0.22
13,A94U U120C U132C,1.12
14,A90G U120C A135U,0.21
15,U103A A116G U131A,0.03
16,A98G U127C A134G,0.22
17,U102C U130C U133G,2.48
18,U87C U108C G115U,0
19,A86U A96G A98G,0.7
20,A96G G104A U132C,0.01
21,A118G A134U A140G,1.09
22,G93C A96C U102A U120C,0.13
23,U103C A110G A129G,0.07
24,U102C U130C U131C,1.82

row,Variant,self-cleavage
1,A86G A116C A117G,0.49
2,A86G U108A U122C,0
3,U87C A89U U108C C128U,0.01
4,U97A U100C A140U,1.65
5,U102C U108C U131C,0.01
6,U100C A110G U130C,0.13
7,U102C U103A A129G,0.08
8,U87A A110G A118G,0.19
9,U87C A92G A116G,0.54
10,U100G U108G A111G A114G U122C,0
11,A94U U97A U132C,2.24
12,A114C U127C U130C A134G,0
13,A91G A98G U100C,1.64
14,A92U A94G A96G U120C,0.31
15,A92G A95G A126G,2.04
16,A82U A95G A140G,0.33
17,A92G A116G A117G,0.49
18,A90G U122C U127A,0.76
19,A86G U127C A140G,0.99
20,A90G A91G U103A,0.67
21,C113U A114C U132C,0
22,U102C U108C A118U U132C,0
23,A91G U108C A116G,0
24,U87C A117G A134G,1.67

row,Variant,self-cleavage
1,A86G A110G U127C,0.09
2,A89G C109A A126G A135G,0.13
3,A96G A114G A118G,0.68
4,U87C U122C U132A,1.01
5,A82U U87C A90U A111G,0.02
6,A118G U122C U133C,1.04
7,A110G A134C A135G,0.15
8,U100C A111G A126G,0.01
9,A95G G106U A114U,0.02
10,U103C U108C U139A,0
11,U87C A91G U132C U139C,0.44
12,A91G U102C A116G U131C,0.7
13,A94G A98G U108C A111C A118G,0
14,A89G A94G U100C A116G,1.15
15,A89G A96G U108C U132C,0.02
16,U87C A92G A95G C113U U124A U130C,0
17,A90G U120C A126G,0.7
18,U87C U108C U127C,0
19,A86G U97A A125G,0.55
20,A96G A118G U132C,1.34
21,A90G A96G U97C,0.29
22,A92G A96U U120C,1.24
23,U100A C112U U131C,0.01
24,A114G A117G A126U U139A,0.67

row,Variant,self-cleavage
1,U108C A118G U130C,0
2,U87C U132A A140U,1.66
3,U97C U103C A129G,0.59
4,A89U C113A A116G,0.06
5,A111U U120C U130C,0.01
6,A86G A91G A111G,0
7,U87C U100C U131C,2.8
8,A95G A111G U122C U132C,0
9,A116G U120C U139C,0.4
10,A86G U87C A95G,1.33
11,C109A A114C U127C,0.01
12,U87C A94U A98G A114G,0.42
13,A91G U108A A117U,0
14,U100C A110G A118G,0.19
15,A111G A114G U127C,0.01
16,U97C A98G U131C,0.79
17,A95G U102A U139C A140G,2.13
18,A111G A118G U120C,0.01
19,U102C U103C A111G A125G,0.01
20,U108A A110C A118G,0
21,A91G G137A A140C,1.56
22,A110G A114G A126G,0.07
23,A86G U130C U139C,1.11
24,A89U U103C U130C,0.68

row,Variant,self-cleavage
1,U87A A94U U97C U139A,1.13
2,A90G A95G U102C,2.51
3,A92G U97C A117G A126G U132A,0.61
4,U97A A116G U127C,0.17
5,U87C A89G C105U A118G,0.02
6,A90G A118G U120C U132C,0.01
7,A90G U102C U108C U124C,0.02
8,U87C A95G U120C,0.69
9,G106A A111G U133C,0.02
10,A91G A92G A110G,0.11
11,U87C A116G C128A U132A,0.23
12,A94U U100C A118G,2.28
13,U87A A90U A126U,1.43
14,A117G U122C U127C,0.79
15,A91G U103C U122C,0.22
16,A96G G104A U139C,0.03
17,A86U A111G U133C,0.02
18,C113U A116G U122C G138A,0.01
19,A94G U103C U132A,0.32
20,A90G U100C U130C,2.77
21,A90G U102C A140G,1.03
22,A89U U120A A135C,2.25
23,U108C G137C G138U,0.03
